Assay results as given in the RNAGym collection of RNA variant scans (doi:10.7554/elife.90254).
The source gives no read counts; variants with many changes may rest on few reads.

B1: LINE1-full (parent)
chain: UACGUAGGUGGUUUUCCCCUGAUAGUGCUAAGGGGGCCUGGAAGUUUGGACUGGGCAGAGCUCAACACAGCGUGGCAAAGUGGCUGUGGCUAGACUGCCUCUCUGGAUUCCUCGUCACUCAGCAGGGCAUCUCUGAGAGAAAUGCC

Variants of: B1
Experiment: self-cleavage, relative activity (ratio to wild type); higher = more cleavage; in vitro, sequencing; the parent is a self-cleaving ribozyme

Variant | self-cleavage
UACGUAGGAGGUUUUCCCCUGAUAGUGCUAAGGGGGCCUGGAAGUUUGGACUGGGCAGAGCUCAACACAGCGUGGCAAAGUGGCAGUGGCUAGACUGCCUCUCUGGUUUCCUCGUCACUCAGCAGGGCAUCUCUGAGAGAAAUGCC | 0.25
UACGUAGGUGGUUUUCCCCUGAUAGUGCUAAGGGGGCCUGGAAGUUUGGACUGGGCAGAGCUCAACACAGCGUGGCAAAGUGGCUGUGGCUAGACUGCCUCUCUGGAUUCCACGCCACUCAGCAGGGCAUCUCCGAGAGAAAUGCC | 1.98
UACGUGGAUGGUUUUCCCCUGAUAGUGCUAAGGGGGCCUGGAAGUUCGGACUGGGCAGAGCACAACACAGCGUGGCUAAGUGGCUGUGGCUAGACUGCCUCUCUGGAUUCCUCGUCACUCAGCAGGGCAUCUCUGAGAGAAAUGCC | 0.34
UACGUAGGUGGUUUUCCCCUGAUAGUGCUAAGGGGGCCUGGAGGUUUGGACUGGGCAGAGCUCAACACAGCGUGGCAAAGUGGCUAUGGCUAGACUGCCUCUCUGGAUUCCUCGUCACCCAGCAGGGCAUCUCUGAGAGAAAUGCC | 0.06
UACGUAGGUGGUUCUCCCCUGAUAGUGCUAAGGGGGCCUGGAAGAUUGGACUGGGCCGAGCUCAACACAGCGUGGCAAAGUGGCUGUGGCUAGACUGCCUCUCUGGAUUCCUCGUCACUCAGCAGGGCAUCUCCGAGAGAAAUGCC | 0.22
UACGCAGGUGGUUUUCCCCUGAUAGUGCUAAGGGGGCCUGGAAGUUUGGACUGGGCAGAGCUCAACACUGCGUGGCAAAGUGGCUGUGGCUAGACUGCCUCUCUGGAUUCCUCGUCACUCAGCAGGGCAACUCCGAGAGAAAUGCC | 0.32
UACGUAGGUGGUUUUCCCCUGAUAGUGCUAAGGGGGCCUGGAAGUUUGGACUGGGCAGAGCUCAACACAGCGAGGCAAAGUGGCUGUGGCUAGACUGCCUCUCUGGGUUCCUCGUCACUCAGCAGGGCAUCUCUGAGAGAAACGCC | 1.75
UACGUAGGUGGUUUACCCCUGAUAGUGCUAAAGGGGCCUGGAAGUUUGGACUGGGCAGAGCUCAACACAGCGUGGCGAAGUGGCUGUGGCUAGACUGCCUCUCUGGAUUCCUCGUCACUCAGCGGGGCUUCUCUGAGAGAAAUGCC | 1.41
UACGUAGGUAGUUUUCCCCUGAUAGUGCUAAGGGGGCCUGGAAGUUUGGACUGGGCAGAGCUCAACACAGCGUGGCAAAGUGGCUGAGGCUAGACCGCCUCUCUGGAUUCCUCGUCACUCAGCAGGGCAUCUCUGAGAGAAAUGCC | 0.08
UACGUAGGUGGUUUUCCCCUGAUAGUGCUAAGGGGGCCUGGAGGUUUGGACUGGGCAGAGCUCAACACAGCGUGGCAUAGUGGCUGUGGCUGGACUGCCUCUCUGGAUUCCUCGUCACUCAGCAGGGCAUCCUUGAGAGAAAUGCC | 0.19
UACGUAGGUGGUUUUCCCCAGAUAGUGCUAAGGGGGCCUGGAAGUAUGGACUGGGCAGAGCUCAACACAGCGUGGCAAAGUGGCUGUGGCUAGACUGCCUCUCUGGAUUCCUCGUCACUCAGCAGGGCAUCUCAGAGGGAAAUGCC | 2.27
UACGUAGGUGGCUUUCCCCUGAUAGUGCUAAGGGGGGCUGGAAGUUUGGACUGGGCAGUGCUCAACACAGCGUGGCAAAGUGGCUGUGGCUAGACUGCCUCUCUGGAUACCUCGUCACUCAGCAGGGCAUCUCUGAGAGAAAUGCC | 1
UACGUAGGUGGUUUUCCCCUGAUAGUGCUAAGGGGGCCUGGAAGUUUGGACUGGGCAGAGCUCAACACAGCGAGGCAAAGUGGCUGUGGCUAGACUGCCUCUCUGGAUCCCUCGUCACUCGGCAGGGCAUCUCUGAGAGAAAUGCC | 1.88
UACGUAGGAGGUUUUCCCCUGAUAGUGCUAAGGGGGCCUGGAAGUUUGGACUGGGCAGAGCUCAACACAGCGAGGCAAAGUGGCUGUGGCUAGACUGCCUCUCUGGAUUCCUCGUCACUCAGCAGGGCAUCUCUGAGAGAGAUGCC | 1.61
UACGUAGGUGGUUUUCCCCUGAUAGUGCUAAGGGGGCCUGGAAGUUUGGACAGGGCAGAGCUCAACACAGCGUGGCAAAGUGGCUGUGGCUAGACUGCCUCUCUGGAUUCCUCGUCACUCAGCAGGGCGUCUCUGAGUGAAAUGCC | 1.34
UACGUAGGUGGUUUUCCCCUGAUAGUGCUAAGGGGGCCCGGAAGUUUGAACUGGGCAGAGCUCAACACAGCGUAGCAAAGUGGCUGUGGCUAGACUGCCUCUCUGGAUUCCUCGUCACCCAGCAGGGCAUCUCUGAGAGAAAUGCC | 0.98
UACGUAGGUGGUUUUCCCCUGAUGGUGCUAAGAGGGCCUGGAAGUUUGGACUGGGCAGAGCUCAACACGGCGUGGCAAAGAGGCUGUGGCUAGACUGCCUCUCUGGAUUCCUCGUCACUCAGCAGGGCAUCUCUGAGAGAAAUGCC | 0.82
UACGUAGGUGGUUUUCCCCUGAUAGAGCUAAGGGGGCCUGGAAGUUUGGACUGGGCAGAGCUCAACACAGCGUGGCGAAGUGGCUGUGGCUAGACUGCCACUCUGGAUUCCUCGUCACUCAGCAGGGCAUCUCUGAGAGAAAUGCC | 0.63
UACGUAGGUGGUUUUCCCCUGAUAGUGCUAAGGGGGCCUGGAAGUUUGGACCGGGCAGAGCUCAACACAGCGUGGUAAAGUGGCUGUGGCUAGACUGCCUCUCUGGAGUCCUCGUCACUCAGCAGGGCAUCUCUGAGAGAAAUGCC | 1.9
UACGUAGGUGGUUUUCCCCUGAUAGUGCUAAGGGGGCCUGGAAGUCUGGACUGGGCAGAGCACAACACAGCGUGGCAAAGUGGCUGUGGCUAGACUGCCUCUUUGGAUUCCUCGUCACUCAGCAGGGCAUCUCUGAGAGAGAUGCC | 0.06

Variant | self-cleavage
UACGUAGGUGGUUUUCCCCAGAUAGUGCUAAGGGGGCCUGGAAGUUUGGACUGGGCAGAGCUCAACACAGCGUGGCAAAGUGGCUGUGGCUAGACUGCCUCUCUGGAUUCCUCGUCACGCAGCAGGGCAUCUCUGAGAGGAAUGCC | 1.76
UACGUAGGUGGUUUUCCCCUGAUAGUGCUAAGGGGGCCUGGAAGUUUGGACUGGGCAAAGCUCAGCGCAGCGUGGCAAAGUGGUUGUGGCUAGACUGCCUCUCUGGAUUCCUCGUCACUCAGCAGGGCAUCUCUGAGAGUAAUGCC | 0.02
UACGUAGGUGGUUUUCCCCUGAUAGUGCUAAGGAGGCCUGGAAGUUUGGACUGGGCAGAGCUCAACACAGUGUGGCAAAGUGGCUGUGGCUAGACUGCCUCCCUGGGUUCCUCGUCACUCAGCGGGGCAUCUCUGAGAGAAAUGCC | 0.18
UACGCAGGUGGUUUUCCCCUGAUAGUGCUAAGGGGGCCUGGAAGUUUGGACUGGGCAGAGCUCAACACAGCGUGGCAAAGUGGCUGUGGCUAGACUGCCUCUCUGGACUCCUCGUCACUCAGCAGGGCAUCUCCGAGAGAAAUGCC | 0.66
UACGUAGGUGGUUUUCCCCUGAUAGUGCUAAUGGAGCCUGGAAGUUUGGACUGGGCAGAGCUCAACACAGCGUGGCAAAGUGGCUGUGGCUAGACUGCCUCUCUGGAUUCCUCGUCACUCAGCAGGGCUUCUCUGAGAGAAAUGCC | 0.92
UACGUAGGUGGUUUUCCCCUGAUAGUGCUAAGGGGGCCUGGAAGUUUGGACUGGGCAGAGCUCAACACGGCGUGGCAAAGCGGCUGUGGCUAGACUGCCUCUAUGGAUUCCUCGUCACUCAGCAGGGCAUCUCUGAGAGAAAUGCC | 0
UACGUAGAAGGUUUUCCCCUGAUAGAGCUGAGGGGGCCUGGAAGUUUGGACCGGGCAGAGCUCAACACAGCGUGGCAAAGUGGCUGUGGCUAGACUGCCUCUCUGGAUUCCUCUUCACUCAGCAGGGCAUCUCUGAGAGAAAUGCC | 0.57
UACGUAGGUGGUUUUCCCCUGGUAGUGCUAAGGGGGCCCGGAAGUUUGGACUGUGCAGAGCUCAACACAGCGUGGCAUAGUGGCUGUGGCUAGACUGCCUCUCUGGAUUCCUCGUCACCCAGCAGGGCAUCUCUGAGAGAAAUGCC | 1.12
UACGUAGGUGGUUUUCCCCUGAUAGUGCUAAGGGCGCCUGGAAGUUUGGACUGGGCAGAGCUCAUCACAGCGUGGCUAAGUGGCUGUGGCUAGACUGCCUCUCUGGAUUCCUCGUCACUCAGCAGGGCAUCUCUGAGAGAAAUGCC | 0.18
UACGUAGGUGGUUUUCCCCUGAUAGUGCUAAGGGGGCCUGGAAGUUUGGACUGGGCAGUGCUCAACACAGCGUGGCAAAGUGGCUGUGGCUAGACUGCCUCUCUGGAUUCCUCGUCACUCAGCAGGGCAUCUCUGGGAGAGAUGCC | 1.24
UACGUAGGUGGUUUUCCCCUGAUAGUGCCAAGGGGGCCUGGAAGUUUGGACUGGGCAGAGCUCAACGCAGCGUGGCAAAGUGGCUGUGGCUAGACUGCCUCUCUGGAUUCCUCGUCACUCAGCGGGGCAUCUCUGAGAGAAAUGCC | 0
UACGAAGGUGGUUUUCCCCUGAUAGUGCUAAGGGGGCCUGGAAGUUUGGACUGGGCAGAGCUCAACACUGCGUGGCAAAGUGGCUGUGGCUAGACUGCCUCUCUGGGUUCCUCGUCACUCAGCAGGGCAUCUCUGAGAGAAAUGCC | 0.21
UACGUAGGUGGUUUUCCCCUGAUAGUGCUAAGGGGGCCUGGAAGUUUGGACUGGGCAGAGCUCAACACAGCGUGGCAAAGUGGCUGUGGCUAGUCUGCCCCUCAGGAUUCCUCGUCACUCAGCAGGGCAUCUCUGAGAGAAAUGCC | 0.39
UACGUAGGUGGUUUUCCCCUGGUAGUGCUAAGGGGGCCUGGAAGUUUGGACUGGGCAGAGCCCAACACAGCGUGGCAAGGUGGCUGUGGCUAGACUGCCUCUCUGGAUUCCCCGUCACUCAGCAGGGCAUCUCUGAGAGAAAUGCC | 0.51
UGCGUAGGUGGUUUACCCCUGAUAGUGCUAAGGGGGCCAGGAAGUUUGGACUGGGCAGAGCUCAACUCAGCGUGGCAAAGUGACUGUGGCUAGACUGCCUCUCUGGAAUCCUCGUCACUCAGCAGGGCAUCUCUGAGAGAAAUGCC | 0.15
UACGUAGGUGGUUUUCCCCUGAUAGUGCUAAGGGGGCCUGGAAGUUUGGACAGGGCAGAGCUCAACACAGCGUGGCAAAGUGGCUGUGGCUAGACUGCCUCUCUGGAUUCCUCGUCGCUCAGCAGGGCAUCUCUGAGAGAGAUGCC | 1.74
UACGUAGGUGGUUUUCCCCUGGUAGUGCUAAGGGGGCCUGGAUGUUUGGACUGGGCAGAGCUCAACACAGCGUGGCAAAGUGGCUGUGGCUAGACUGCCUCUCUGGAUUCCUCGUCACUCAGCAGGGCAUCUCUGAGAGAAACGCC | 1.41
UACGUAGGUGGUUUUCCCCUGAUAGUGCUAAGGGGGCCUGGAAGUAUGGACUGGGCAGACCUCAACACAGCGUGGCAAAGUGGCUGUGGCUAGACUGCCUCUCUGGAUUCCUCGACACUCAGCAGGGCAUCUCUGAGAGGAAUGCC | 0.06
UACGUAGGUGGUUUUCCCCUGAUAGUGCUAAGGGGGCCUGGAAGUUUGGACUGGGCAGAGCUCAACACAGCGUGGCAAAGUGGCUGUGGCUAGACUGCCUCUCUGGAUUCCUCGUCAUCCAGCAGGGCAUCUCUGAGAGAGAUGCC | 2.08
